The values that follow come from ChEMBL document CHEMBL4888484, “Replenishing the malaria drug discovery pipeline: Screening and hit evaluation of the MMV Hit Generation Library 1 (HGL1) against asexual blood stage Plasmodium falciparum ,using a nano luciferase reporter read-out” (2022).

In all, about 150,000 compounds went through this assay and about 540 (0.36%) showed an effect of 50% or more. The list shows a part of the results.

This experiment deals with Plasmodium falciparum. In words: Primary screen in NF54 nanoGlo assay, in single point, at 2uM, 72h; a lower Z score goes with more inhibition. It is filed as functional, Erythrocyte. The conditions noted are these: timepoint 72 hour.
`O=C1C2C3CC4C(OC(C42)N1C1CCCCC1)C3O` (stereo unspecified): the % Inhibition (commonly the relative decrease from the control value, in per cent) is -10% and the Z score was determined as 1.24.
For `CC(C)c1nnc(CN2CCCN(c3nc4ccccc4[nH]3)CC2)o1` the same measures were 0% and -0.03.
For `CCNC(=O)N1CCc2nc(N3CCCCC3)nc(Oc3cccc(F)c3)c2C1` the same measures were -3% and 0.43.
For `COc1nccc(C(=O)NCc2cc(C)c(O)c(C)c2)n1` the same measures were -2% and 0.35.
As for `CC(NC(=O)CN1CCCCC1Cn1cncn1)c1ccco1` (stereo unspecified), the “% Inhibition” value is given as -4% and the Z score was determined as 0.44.
In the case of `Cc1ccc(-c2onc3c2CCCC3)cc1NC(=O)CC1CCCC1`, the “% Inhibition” value is recorded as -22% and the Z score came to 3.16.
In the same order, the values of `O=C(C1CCN(CN2C(=O)NC3(CCCCC3)C2=O)CC1)N1CCCCCC1` are -8% and 1.17.
For `O=C(COc1ccc2nncn2n1)N1CCC[C@@]2(C=Cc3ccccc3O2)CC1` the same measures were 1% and -0.07.
In the same order, the values of `O=C1CCC(CN2CCOC[C@H]2c2ncnn2Cc2ccccc2)CC1` are -6% and 0.94.
Take `C[C@H]1Cc2cc(C(=O)NCCN3CCCCC3=O)ccc2O1`: the “% Inhibition” value is on record as -14% and the Z score was 1.59.
In the same order, the values of `CC[C@]1(C(=O)O)CCCN(Cc2[nH]nc(C)c2Cl)C1` are -2% and 0.22.
In the same order, the values of `Cc1nnc2c3ccccc3nc(N3CCN(C(=O)C(C)C)CC3)n12` are -5% and 1.
In the same order, the values of `CC(=O)Nc1nnc(CCOC[C@H](C)OCCc2nnc(NC(C)=O)s2)s1` are -11% and 2.09.
Turning to `CCOc1ccc(NC(=O)c2ccnc(N3CCC(C(=O)NCc4ccc(OC)cc4)CC3)c2)cc1`, the “% Inhibition” value is on record as -14% and the Z score amounted to 2.1.
For `CCN(CC)C(=O)c1ccc(COc2ccc3c(c2)[C@H](c2ccccc2)N(C(=O)C(C)(C)C)CC3)o1` the same measures were -17% and 1.54.
On to `CCN1CCc2nc(-c3ccc(F)cc3)n(CC(=O)Nc3ccccc3OC)c(=O)c2C1`, for which the “% Inhibition” value was 1% and the Z score is listed as -0.08.
In the case of `COc1ccc(C(=O)Oc2ccc3nc(N(C)C)sc3c2)cc1`, the “% Inhibition” value stood at 2% and the Z score is recorded as -0.29.
Regarding `Cc1nonc1OCCNC(=O)COc1ccc(N(C)Cc2ccc(F)cc2)nn1`, the “% Inhibition” value is reported as -6% and the Z score was found to be 0.8.
With `CCc1nnc(COc2cnc3ccccc3c2)o1`, the “% Inhibition” value is on record as -6% and the Z score is given as 0.56.
For `O=C(N[C@@H]1[C@@H]2CCO[C@@H]2[C@H]1N1CCCCC1)c1n[nH]c2c1CCC2` the same measures were -10% and 1.83.
For `CCOc1cncc(CN2CC(CC3COCC(=O)N3)c3ccccc32)c1` (stereo unspecified), the “% Inhibition” value is -10% and the Z score is recorded as 0.91.
Regarding `COCC[C@]1(NC(=O)c2ccc(F)cc2)CCN(Cc2ccccc2OC(C)C)C1`, the “% Inhibition” value is reported as 7% and the Z score is -1.14.
In the same order, the values of `COc1ccc(CC2CCN(C(=O)c3c(C)noc3-c3ccc4c(c3)OCO4)CC2)cc1` are -10% and 1.4.
In the same order, the values of `COC(=O)c1ccc(NC(=O)NC2CCOC3(CCOC3)C2)cc1` (stereo unspecified) are 10% and -1.42.
On to `Cc1cc(CN(C)c2ncccc2C(=O)OC(C)C)no1`, for which the “% Inhibition” value is recorded as 0% and the Z score was -0.05.
For `O=C(CCC1CCN(c2nccs2)CC1)Nc1ccc2c(c1)OCCO2`, the “% Inhibition” value was -8% and the Z score came to 1.51.
For `O=C(CNCC1CCCCC1)Nc1cc(S(=O)(=O)N2CCOCC2)ccc1N1CCOCC1` the same measures were 0% and -0.03.
In the same order, the values of `Cc1cc(Oc2ccc(NC(=O)c3cc[nH]n3)cc2)n[nH]1` are -22% and 1.92.
On to `Cc1nc(CC(=O)N2CCS(=O)(=O)CC2)cs1`, for which the “% Inhibition” value was -12% and the Z score came to 2.28.
For `COc1cccc(C(C(=O)O)N2CC(C)OC3(CCCCC3)C2)c1` (stereo unspecified), the “% Inhibition” value came out at 4% and the Z score is -0.59.
Take `Cc1cccc(C(=O)Nc2ccc(N3CC[C@H](c4cccc(C)c4)C3)cc2C(=O)O)c1`: the “% Inhibition” value is listed as -6% and the Z score is listed as 1.08.
In the same order, the values of `CCN(c1cccc(C)c1)c1ncnc2c1cnn2-c1ccc(Cl)cc1C` are 2% and -0.28.
In the same order, the values of `O=C(NCCO)NCCCc1ccc(Cl)cc1Cl` are -7% and 1.
For `O=C(NC[C@H]1CCCN(c2nccs2)C1)c1cc(-c2ccc(F)cc2)c[nH]1` the same measures were 19% and -2.46.
With `CCCC(c1ccccn1)N(C)C(C)C(=O)Nc1cc(F)ccc1C` (stereo unspecified), the “% Inhibition” value is reported as 8% and the Z score is -1.13.
For `Cc1cccnc1[C@H](C)NS(=O)(=O)N1CCCC1` the same measures were 9% and -1.2.
In the same order, the values of `CC[C@](NC(=O)c1coc(C)c1)(C(=O)O)c1ccccc1` are 6% and -0.7.
In the same order, the values of `O=C(NCCOCC1CCOC1)C1(O)CC2CCC1C2` (stereo unspecified) are -7% and 1.21.
Take `CCn1c2ccccc2c2cc([C@H](C)NC(=O)c3cccc(Cl)c3)ccc21`: the “% Inhibition” value is reported as -3% and the Z score amounted to 0.37.
In the same order, the values of `CC1CN(CC(O)C(F)(F)F)CC(C)N1CC(O)C(F)(F)F` (stereo unspecified) are -8% and 0.86.
With `CC(C)(C)OC(=O)N1CCC[C@H](/C(N)=N/O)C1`, the “% Inhibition” value is recorded as -17% and the Z score amounted to 1.92.
In the same order, the values of `CC1(CS(=O)(=O)N2CCO[C@@H](Cn3cccn3)C2)CCOCC1` are -7% and 0.93.
In the same order, the values of `CCN1C(=O)C[C@H](C(=O)NCC(C)(C)c2ccc(C)cn2)[C@H]1c1nccn1C` are -3% and 0.49.
